# Test results from PubChem BioAssay AID1460 (National Center for Advancing Translational Sciences (NCATS), 2008).
# In all, about 270,000 compounds went through this assay and about 5,800 (2.1%) were called active. This list was built around the results that the source calls inconclusive (neither active nor inactive); the mix of calls is not that of the screen. Calls follow the shape of the dose curve; as a rule, active = well fitted inhibition curve with a large enough effect; inconclusive = small, poorly fitted or top-dose-only effect; inactive = flat fitted curve, though single readings scatter. A potency beside an inconclusive call is a rough fit, not a confirmed value.
# Target: Microtubule-associated protein tau (Homo sapiens) (UniProt P10636)
# Chain of UniProt P10636 (P10636 whole entry, looked up): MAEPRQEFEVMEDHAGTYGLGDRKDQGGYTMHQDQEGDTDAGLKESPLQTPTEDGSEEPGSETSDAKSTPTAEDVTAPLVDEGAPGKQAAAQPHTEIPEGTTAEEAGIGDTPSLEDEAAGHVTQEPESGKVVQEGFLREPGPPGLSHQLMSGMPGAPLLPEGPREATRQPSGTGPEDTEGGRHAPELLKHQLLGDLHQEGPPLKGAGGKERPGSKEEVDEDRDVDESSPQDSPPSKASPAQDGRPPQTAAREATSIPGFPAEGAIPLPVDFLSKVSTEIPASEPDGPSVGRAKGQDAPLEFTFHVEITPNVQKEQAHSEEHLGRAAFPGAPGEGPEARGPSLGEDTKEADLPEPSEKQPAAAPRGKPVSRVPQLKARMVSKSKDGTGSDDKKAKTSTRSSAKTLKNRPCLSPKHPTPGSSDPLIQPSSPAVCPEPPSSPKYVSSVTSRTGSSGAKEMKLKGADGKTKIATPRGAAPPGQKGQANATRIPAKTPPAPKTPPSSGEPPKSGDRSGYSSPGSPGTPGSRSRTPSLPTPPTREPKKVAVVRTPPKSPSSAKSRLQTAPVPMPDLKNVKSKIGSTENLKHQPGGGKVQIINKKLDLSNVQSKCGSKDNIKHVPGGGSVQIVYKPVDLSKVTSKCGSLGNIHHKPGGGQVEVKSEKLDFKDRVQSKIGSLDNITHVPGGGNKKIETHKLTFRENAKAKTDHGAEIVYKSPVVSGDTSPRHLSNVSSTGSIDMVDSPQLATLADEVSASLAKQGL
# Experiment: qHTS for Inhibitors of Tau Fibril Formation, Thioflavin T Binding; also: nearly all actives have a fitted effect of over 55% in size
# Settings: recombinant tau K18 P301L, heparin-induced fibrillization, ThT fluorescence; series mostly up to 57.4 µM; activity, negative = inhibition: at the top concentration
# Procedure, shortened: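 ThT emission at 510 nm, taken 1 hr after adding 30 uM dye, quantifies aggregates formed when 20 uM heparin acts on human tau K18 P301L for 6 hr at 37 C.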
# % is scaled to controls: 0 for no effect and ±100 for the full control effect; potency is read from the fitted curve at half-maximal effect; tags tell the direction and shape of the fitted curve.
SMILES,"activity, negative = inhibition",Potency
CC(NC(=O)CCCn1c(=O)c2cccn2c2cccnc21)c1ccccc1 (stereo not drawn),inactive: -4.03%,–
CCOc1ccc(-c2nc(C#N)c(NCCCOC)o2)cc1,–,"inconclusive: 10 µM [inhibitor, partial curve]"
CC1CC1C(=O)Nc1nc(-c2ccccn2)cs1 (stereo not drawn),–,"inconclusive: 17.8 µM [inhibitor, partial curve]"
Cc1ccccc1Cn1ccc(NC(=O)c2cnn3c2NC(c2ccccc2)CC3C(F)(F)F)n1 (stereo not drawn),–,"inconclusive: 25.1 µM [inhibitor, partial curve]"
CC(=O)CSc1nc(N)c(C#N)c(-c2cccs2)c1C#N,–,"inconclusive: 14.1 µM [inhibitor, partial curve]"
CCN1CCN(CCCOc2ccc(Cl)cc2Br)CC1,inactive: 8.53%,–
CCOC(=O)C(=O)Nc1sc(C(=O)N(CC)CC)c(C)c1C#N,inactive: -7.23%,–
COC(=O)c1cc(NC(=O)c2cc(C)oc2C)cc(C(=O)OC)c1,–,"inconclusive: 25.1 µM [inhibitor, partial curve]"
COc1ccc(C(C)C)cc1S(=O)(=O)NCCc1c(C)[nH]c2ccc(C)cc12,–,"inconclusive: 15.8 µM [inhibitor, single point]"
COc1ccc(C(=O)Nc2ccc(NC(=O)c3ccco3)c(Cl)c2)cc1OC,–,"inconclusive: 1.78 µM [inhibitor, full curve]"
CC(C)(C)OC(=O)N1CCC(c2c(C(=O)N3CCc4ccccc4C3)cnn2-c2ccc(F)cc2)CC1,inactive: -16%,–
CCC(=O)Nc1ccc(/C(C)=N/NC(=O)c2c(Br)c(C)nn2C)cc1,–,"inconclusive: 12.6 µM [inhibitor, partial curve]"
Cc1cc(-c2csc(NC(=O)c3ccc(C#N)cc3)n2)c(C)n1Cc1ccco1,–,"inconclusive: 7.94 µM [inhibitor, partial curve]"
COC(=O)C1=COC(O[C@H]2OC(CO)[C@H](O)C(O)C2O)[C@H]2C1C(=O)C[C@@H]2C (stereo partly drawn),–,"inconclusive: 0.199 µM [inhibitor, full curve, poor fit]"
CC(=O)N(C)/C=C1\Sc2ccccc2C1=O,–,"inconclusive: 31.6 µM [inhibitor, partial curve]"
CCOc1ccccc1-c1c2cc(O)c(=O)cc-2oc2cc(O)c(O)cc12,–,"inconclusive: 1.26 µM [inhibitor, full curve]"
COc1ccc(/C=N/Nc2ccccc2C(=O)O)cc1Cn1cc([N+](=O)[O-])cn1,–,"inconclusive: 25.1 µM [inhibitor, partial curve, poor fit]"
COc1cc(C(=O)Sc2ccc(Cl)cc2)cc(OC)c1OC,–,"inconclusive: 17.8 µM [inhibitor, partial curve]"
